The values below come from PubChem BioAssay (NCI).

The structures appear in SMILES notation.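 Values below derive from 48-hour exposures of cells grown in 96-well plates, with endpoints linearly interpolated between the two concentrations bracketing the appropriate inhibition level. GI50: concentration for 50% inhibition of growth. TGI: total growth inhibition.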 Some results are limits rather than exact numbers.

The test system of this test is NCI-H322M lung. As to the kind of experiment: NCI tumour cell line growth inhibition, 48 h.
For the molecule `COC(CCP(=O)(c1ccccc1)c1ccccc1)(C(=O)c1ccccc1)c1ccccc1` (centres undefined), the GI50 was 4.36 µM and the TGI is 17.9 µM.

Turning to `COc1cccc2cc(C(N)=O)c(=N)oc12`, the TGI was > 100 µM.

Consider `CC(C)(C)[Si](C)(C)OCCCC#CCO`, for which the TGI is > 100 µM.

For `COc1cc2c(c(OC)c1OC)-c1[nH]ncc1CC2`, the TGI is > 100 µM.

In the case of `O=C(Oc1ccccc1)c1cc2cc(CCl)ccc2oc1=O`, the TGI is > 100 µM.

Take `O=C(O)C1C2CC3C(OC(=O)C31)C2Br` (centres undefined): the TGI was > 100 µM.

Regarding `O=C1OC(c2ccc(O)c(-c3ccccc3)c2)(c2ccc(O)c(-c3ccccc3)c2)c2c(Cl)c(Cl)c(Cl)c(Cl)c21`, the TGI is > 100 µM.

On to `CS(=O)(=O)CCNCc1ccc(-c2ccc3ncnc(Nc4ccc(OCc5cccc(C(F)(F)F)c5)cc4)c3c2)o1`, for which the GI50 was 8.22 µM and the TGI came out at 24.4 µM.

Consider `N#Cc1[nH]c(=O)n(-c2ccc(Cl)cc2)c1N`, for which the TGI was > 10 µM.

On to `CCCNCc1nc2ccc(Br)cc2c(=O)n1CCC`, for which the TGI turned out to be 31.2 µM.

For the molecule `Cc1ccc(NC(=O)/C(CC(=O)c2c[n+](=O)c3ccccc3n2O)=N\NC(=O)C[n+]2ccccc2)cc1`, the TGI is > 100 µM.

With `Cc1cccc(Nc2cn(COCc3ccccc3)c(=O)[nH]c2=O)c1`, the TGI is > 100 µM.

Turning to `O=C(CCC(=O)Nc1ccc(Cl)cc1)CC(=O)c1ccc(F)cc1`, the TGI is > 100 µM.

On to `CC(C)CCC1(O)O[C@H]2C[C@H]3[C@@H]4CCC5CC(=O)C=C[C@]5(C)[C@H]4CC[C@]3(C)[C@H]2[C@@H]1C` (some centres undefined), for which the TGI amounted to 28.4 µM.

For the molecule `NC(=O)CCC(NCc1c2ccccc2[n+]([O-])c2ccccc12)C(=O)O` (centres undefined), the TGI was > 100 µM.

Take `O=C1c2ccccc2CC12Cc1cc3c(cc1C2=O)CCC3` (centres undefined): the TGI was > 100 µM.

`O=c1/c(=C/c2ccc(Cl)cc2Cl)sc2nc3ccccc3n12`: the TGI is > 100 µM.

`CC(=O)Nc1ncc(Sc2ccccc2C(=O)O)s1`: the TGI was > 100 µM.

With `Cc1c(-c2cc3n(n2)C(c2cccs2)C(C#N)=C(c2ccccc2)N3)c(=O)n(-c2ccccc2)n1C` (centres undefined), the TGI is > 100 µM.

As for `CCC[C@H](N[C@@H]1CCc2cc(F)cc(F)c2C1)C(=O)Nc1cn(C(C)(C)CNCC(C)(C)C)cn1`, the GI50 was 31.8 µM and the TGI is > 100 µM.

With `Brc1ccc([I+]c2ccc(Br)cc2)cc1`, the GI50 was 2.92 µM and the TGI was 13.8 µM.

`CN(C)CCNc1ccc([N+](=O)[O-])c2nc3ccccc3c(N)c12` yielded a TGI of 3.29 µM.

With `COc1cc([C@@H]2c3cc4c(cc3[C@@H](NCCNCCO)[C@H]3COC(=O)[C@H]23)OCO4)cc(OC)c1O`, the TGI was > 100 µM.

For the molecule `CC(=O)OC12c3ccccc3C1CCCCCC21OCCCO1` (centres undefined), the TGI is > 100 µM.

For the molecule `COc1ccc(-c2n[nH]nc2-c2csc3ccccc23)cc1OC`, the GI50 was 7.79 µM and the TGI was > 100 µM.

As for `COc1ccc2c(c1)CC[C@@H]1[C@@H]2CC[C@@]2(C)[C@H]1CC1(CCCCC1)[C@@H]2O`, the GI50 is 17.5 µM and the TGI is 32.1 µM.

Turning to `Cc1ccccc1C(=O)Oc1ccc(Oc2ccccc2)cc1`, the TGI is > 100 µM.

`O=C(c1cc(Cl)cc(Cl)c1)N(C(=S)OC12CC3CC(CC(C3)C1)C2)c1ccccc1`: the TGI is > 100 µM.
